Measurements published in patent US5159081A, “Intermediates of peripherally selective N-carbonyl-3,4,4-trisubstituted piperidine opioid antagonists” (Eli Lilly and Company, priority 1991, dated 1992).
Counter-ions that a name gives are not always drawn. For at least one compound, name, drawing or mass did not settle the structure.

Molecular target: peripheral opioid receptors (Mus musculus, UniProt P42866)
Experiment: mouse diarrhea test: precipitated diarrhea in morphine-maintained mice (peripheral opioid activity)
Assay type: in vivo
Settings: subcutaneous or oral, 30 min observation

Chain of peripheral opioid receptors (P42866 whole entry): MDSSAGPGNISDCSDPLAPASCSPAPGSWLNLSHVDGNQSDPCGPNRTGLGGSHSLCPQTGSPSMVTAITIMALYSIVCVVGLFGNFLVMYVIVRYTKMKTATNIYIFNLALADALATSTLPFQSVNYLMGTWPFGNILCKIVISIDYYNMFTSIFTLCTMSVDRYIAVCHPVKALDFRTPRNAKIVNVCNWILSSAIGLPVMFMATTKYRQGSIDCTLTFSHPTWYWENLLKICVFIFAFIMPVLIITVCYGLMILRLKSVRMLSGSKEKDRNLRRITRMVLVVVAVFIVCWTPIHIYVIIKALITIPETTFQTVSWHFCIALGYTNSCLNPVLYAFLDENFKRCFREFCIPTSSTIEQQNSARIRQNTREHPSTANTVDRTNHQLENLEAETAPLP

SMILES	ED50 [mg/kg]
CCOC(=O)CCCC(=O)N(CCCN1CC[C@@](C)(c2cccc(O)c2)[C@@H](C)C1)C1CCCCC1 (relative stereo) [Example 33, 5-(Cyclohexyl-(3-(trans-4-(3-hydroxyphenyl)-3,4-dimethyl-1-piperidinyl)propyl)amino)-5-oxopentanoic acid ethyl ester monohydrochloride]	0.03
CC(C)CC(=O)NCCCC(=O)N(CCN1CC[C@@](C)(c2cccc(O)c2)[C@@H](C)C1)C1CCCCC1 (relative stereo) [Example 40, hydrochloride]	0.74
CCCOC(=O)CCC(=O)N(CCN1CC[C@@](C)(c2cccc(O)c2)[C@@H](C)C1)C1CCCCC1 (relative stereo) [Example 31, 4-(Cyclohexyl-(2-(trans-4-(3-hydroxyphenyl)-3,4-dimethyl-1-piperidinyl)ethyl)amino)-4-oxobutanoic acid propyl ester]	0.19
C[C@H]1CN(CCN(C(=O)CCCC(=O)O)c2ccccc2)CC[C@@]1(C)c1cccc(O)c1 (relative stereo) [Example 20, Trans-5-(phenyl-(2-(4-(3-hydroxyphenyl)-3,4-dimethyl-1-piperidinyl)ethyl)amino)-5-oxopentanoic acid monohydrate]	0.06
CC(C)OC(=O)CCC(=O)N(CCN1CC[C@@](C)(c2cccc(O)c2)[C@@H](C)C1)C1CCCCC1 (relative stereo) [Example 30, 4-(Cyclohexyl-(2-(trans-4-(3-hydroxyphenyl)-3,4-dimethyl-1-piperidinyl)ethyl)amino)-4-oxobutanoic acid 1-methyl-ethyl ester]	< 0.30
CC(=O)NC(CCN1CC[C@@](C)(c2cccc(O)c2)[C@@H](C)C1)c1ccccc1 (stereo in doubt) [Example 6, N-(3-(trans-4-(3-hydroxyphenyl)-3,4-dimethyl-1-piperidinyl)-1-phenylpropyl)acetamide]	0.07
C[C@H]1CN(CCN(CC2CCCCC2)C(=O)CCC(=O)O)CC[C@@]1(C)c1cccc(O)c1 (relative stereo) [Example 26, 4-(cyclohexylmethyl-(2-(trans-4-(3-hydroxyphenyl)-3,4-dimethyl-1-piperidinyl)ethyl)amino)-4-oxobutanoic acid monohydrate]	0.05
CCOC(=O)CCCC(=O)NC(CCN1CC[C@@](C)(c2cccc(O)c2)[C@@H](C)C1)CC(C)C (stereo in doubt) [Example 3B, 5-((1-(2-(trans-4-(3-hydroxyphenyl)-3,4-dimethyl-1-piperidinyl)ethyl)-3-methylbutyl)amino)-5-oxopentanoic acid ethyl ester monohydrochloride]	0.14
C[C@H]1CN(CCCN(C(=O)CCCC(=O)O)C2CCCCC2)CC[C@@]1(C)c1cccc(O)c1 (relative stereo) [Example 25, 5-(cyclohexyl-(3-(trans-4-(3-hydroxyphenyl)-3,4-dimethyl-1-piperidinyl)propyl)amino)-5-oxopentanoic acid]	0.06
C[C@H]1CN(CCN(C(=O)CCC(=O)O)C2CCCCC2)CC[C@@]1(C)c1cccc(O)c1 (relative stereo) [Example 22, 4-(Cyclohexyl-(2-(trans-4-(3-hydroxyphenyl)-3,4-dimethyl-1-piperidinyl)ethyl)amino)-4-oxobutanoic acid monohydrate]	0.016
C[C@H]1CN(CC(Cc2ccccc2)NC(=O)CCC(=O)O)CC[C@@]1(C)c1cccc(O)c1 (some centres unmarked) [Example 14]	0.32
CCOC(=O)CCCC(=O)NC(CCN1CC[C@@](C)(c2cccc(O)c2)[C@@H](C)C1)CC(C)C (single isomer, unassigned) [Example 3A, 5-((1-(2-(trans-4-(3-hydroxyphenyl)-3,4-dimethyl-1-piperidinyl)ethyl)-3-methylbutyl)amino)-5-oxopentanoic acid ethyl ester monohydrochloride]	0.16
C[C@H]1CN(CCCN(C(=O)CCCC(N)=O)C2CCCCC2)CC[C@@]1(C)c1cccc(O)c1 (relative stereo) [Example 37, N-(3-(trans-4-(3-hydroxyphenyl)-3,4-dimethyl-1-piperidinyl)propyl)-N-cyclohexylpentanediamide monohydrochloride monohydrate]	0.05
COC(=O)[C@H](Cc1ccccc1)NC(=O)CCC(=O)N(CCN1CCC(C)(c2cccc(O)c2)C(C)C1)C1CCCCC1 (stereo partly drawn) [Example 41, 2-((1,4-dioxo-4-(cyclohexyl-(2-(trans-4-(3-hydroxyphenyl)-3,4-dimethyl-1-piperidinyl)ethyl)amino)butyl)-amino)-3-phenylpropanoic acid, methyl ester]	0.43
C[C@H]1CN(CCC(CC2CCCCC2)NC(=O)CCCC(=O)O)CC[C@@]1(C)c1cccc(O)c1 (stereo in doubt) [Example 7, 5-((1-(cyclohexylmethyl)-3-(trans-4-(3-hydroxyphenyl)-3,4-dimethyl-1-piperidinyl)propyl)amino)-5-oxopentanoic acid monohydrochloride monohydrate]	0.45
C[C@H]1CN(CCC(NC(=O)CCCC(=O)O)C2CCCCC2)CC[C@@]1(C)c1cccc(O)c1 (stereo in doubt) [Example 5, 5-((3-(trans-4-(3-hydroxyphenyl)-3,4-dimethyl-1-piperidinyl)-1-cyclohexylpropyl)amino)-5-oxo-pentanoic acid monohydrochloride monohydrate]	0.012
C[C@H]1CN(CCCN(CC2CCCCC2)C(=O)CCCC(=O)O)CC[C@@]1(C)c1cccc(O)c1 (relative stereo) [Example 27, Trans-5-(cyclohexylmethyl(3-(4-(3-hydroxyphenyl)-3,4-dimethyl-1-piperidinyl)propyl)amino)-5-oxopentanoic acid monohydrate]	0.18
C[C@H]1CN(CCN(C(=O)CCC(N)=O)C2CCCCC2)CC[C@@]1(C)c1cccc(O)c1 (relative stereo) [Example 35, N-Cyclohexyl-N-(2-(trans-4-(3-hydroxyphenyl)-3,4-dimethyl-1-piperidinyl)ethyl)butanediamide monohydrochloride]	0.42
CNC(=O)CNC(=O)CC(=O)N(CCN1CC[C@@](C)(c2cccc(O)c2)[C@@H](C)C1)C1CCCCC1 (relative stereo) [Example 38, N-cyclohexyl-N-(2-(trans-4-(3-hydroxyphenyl)-3,4-dimethyl-1-piperidinyl)ethyl)-N'-(2-(methylamino)-2-oxoethyl)propanediamide monohydrochloride]	0.018
C[C@H]1CN(CCN(C(=O)CCCC(=O)O)C2CCCCC2)CC[C@@]1(C)c1cccc(O)c1 (relative stereo) [Example 23, 5-(Cyclohexyl-(2-(trans-4-(3-hydroxyphenyl)-3,4-dimethyl-1-piperidinyl)ethyl)amino)-5-oxopentanoic acid monohydrate]	0.24
